# Assay results taken from US20040161477A1, “Phyllanthus-derived compounds for the prevention and/or treatment of disease associated with a retrovirus” (priority 2000, published 2004).
# Tests used:
# [1] = system: NRTI resistant HIV-1 strain ARP145; assay: Infection of MT4 cells with NRTI resistant HIV-1 strain ARP145, p24 content; conditions: 5 to 0.63 μg/ml, FIG. 3
# Experimental: The HIV-1 virus stock, described in Example 1, was used to asses the inhibitory effect of by P. amarus geraniin on the infection of CD4^+ lymphoide cells (MT4). The 50% tissue culture infectious dose (TCID50) was determined by infection of MT4 cells with serial dilutions of the virus stock and subsequent quantification of viral p24. content in the cell fluid (HIV-1 p24 core profile ELISA, NEN, Zaventem, Belgium). […] It was previously determined that geraniin was non-toxic at these concentrations. The MT4 target cells were incubated for 7 days in the presence of virus and inhibitor, and fresh medium (containing drugs) was added every other day. Infections were monitored by quantification of p24 content in the cell fluid. Samples without detectable p24 contents (compared to the reference inhibitors and uninfected negative controls) were regarded completely, protected from infection. Otherwise the content of p24 in the fluid was negatively correlated to protection. Each experiment was performed in triplicates. FIG. 2 graphically depicts the results of two independent tests (means, error bars reflect standard deviation).
# The strain termed ARP145 (Tisdale et al. (1993), Proc Nat Acad Sci (USA) 90(12): 5653-5656) was obtained from the NIBSC (MRC) and is phenotypically characterized by a 3TC/FTC resistance.
# [2] = system: NRTI resistant HIV-1 strain ARP141; assay: microbe, parasite or virus in culture; conditions: Human immunodeficiency virus 1, MAGI
# [3] = system: NRTI resistant HIV-1 strain ARP145; assay: microbe, parasite or virus in culture; conditions: Human immunodeficiency virus 1, MAGI
# [4] = system: NRTI resistant HIV-1 strain ARP146; assay: microbe, parasite or virus in culture; conditions: Human immunodeficiency virus 1, MAGI
# [5] = system: NNRTI resistant HIV-1 strain ARP1010; assay: microbe, parasite or virus in culture; conditions: Human immunodeficiency virus 1, MAGI
# [6] = system: NNRTI resistant HIV-1 strain ARP1011; assay: microbe, parasite or virus in culture; conditions: Human immunodeficiency virus 1, MAGI
# [7] = system: NNRTI resistant HIV-1 strain ARP1014; assay: microbe, parasite or virus in culture; conditions: Human immunodeficiency virus 1, MAGI
compound,measurement,setting,value
"O=C1O[C@H]2[C@@H]3OC(=O)c4cc(O)c(O)c(O)c4-c4c(cc(O)c(O)c4O)C(=O)OC[C@H]2O[C@@H](OC(=O)c2cc(O)c(O)c(O)c2)[C@@H]3OC(=O)c2cc(O)c(O)c3c2[C@@H]2C1=CC(=O)[C@](O)(O3)C2(O)O [Geraniin, geraniin]",inhibition of NRTI resistant strain compared with wild type (HX10),[1],No significant difference
same,EC50,[2],0.83 µg/mL
same,EC50,[3],0.95 µg/mL
same,EC50,[4],0.71 µg/mL
same,EC50,[5],0.83 µg/mL
same,EC50,[6],0.89 µg/mL
same,EC50,[7],1.1 µg/mL
